The results in this text go back to publication PMC10215715.

Sequences of proteins named here, by UniProt entry; tags and fusion partners are left off. A change or cut given only in a name is not applied to a line headed by its entry.
UniProt Q9Z148: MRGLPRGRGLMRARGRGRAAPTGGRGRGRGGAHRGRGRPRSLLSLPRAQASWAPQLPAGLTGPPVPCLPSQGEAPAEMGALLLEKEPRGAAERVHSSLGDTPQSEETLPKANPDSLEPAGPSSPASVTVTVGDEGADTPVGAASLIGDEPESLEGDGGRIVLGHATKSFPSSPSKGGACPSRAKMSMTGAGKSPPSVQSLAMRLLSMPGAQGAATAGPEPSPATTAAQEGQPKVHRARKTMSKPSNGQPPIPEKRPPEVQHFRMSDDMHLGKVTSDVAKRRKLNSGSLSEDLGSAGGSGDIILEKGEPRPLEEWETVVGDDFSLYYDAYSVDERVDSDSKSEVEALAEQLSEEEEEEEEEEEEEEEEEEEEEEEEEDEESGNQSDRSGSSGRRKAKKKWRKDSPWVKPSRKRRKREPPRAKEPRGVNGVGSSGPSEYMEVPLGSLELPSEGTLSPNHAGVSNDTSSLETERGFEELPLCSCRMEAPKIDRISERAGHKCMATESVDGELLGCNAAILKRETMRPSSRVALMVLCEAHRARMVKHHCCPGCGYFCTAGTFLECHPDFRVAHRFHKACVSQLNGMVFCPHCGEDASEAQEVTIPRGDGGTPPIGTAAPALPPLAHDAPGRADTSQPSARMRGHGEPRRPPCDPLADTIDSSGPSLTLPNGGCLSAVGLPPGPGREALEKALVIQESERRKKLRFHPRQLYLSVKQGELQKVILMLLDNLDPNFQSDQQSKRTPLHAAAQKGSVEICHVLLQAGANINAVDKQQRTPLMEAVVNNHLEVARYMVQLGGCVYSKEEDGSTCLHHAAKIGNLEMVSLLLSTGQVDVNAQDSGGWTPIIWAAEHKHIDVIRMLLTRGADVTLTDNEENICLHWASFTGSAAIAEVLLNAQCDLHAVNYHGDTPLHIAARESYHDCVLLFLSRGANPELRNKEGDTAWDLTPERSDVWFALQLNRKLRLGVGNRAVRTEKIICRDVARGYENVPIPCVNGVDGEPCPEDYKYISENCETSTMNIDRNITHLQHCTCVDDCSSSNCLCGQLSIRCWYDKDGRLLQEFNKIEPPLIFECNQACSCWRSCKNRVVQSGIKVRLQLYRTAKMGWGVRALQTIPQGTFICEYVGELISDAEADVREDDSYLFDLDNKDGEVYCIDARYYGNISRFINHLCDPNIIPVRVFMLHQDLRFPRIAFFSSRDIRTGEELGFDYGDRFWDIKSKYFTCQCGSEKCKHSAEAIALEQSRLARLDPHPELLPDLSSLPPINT
UniProt Q5DW34: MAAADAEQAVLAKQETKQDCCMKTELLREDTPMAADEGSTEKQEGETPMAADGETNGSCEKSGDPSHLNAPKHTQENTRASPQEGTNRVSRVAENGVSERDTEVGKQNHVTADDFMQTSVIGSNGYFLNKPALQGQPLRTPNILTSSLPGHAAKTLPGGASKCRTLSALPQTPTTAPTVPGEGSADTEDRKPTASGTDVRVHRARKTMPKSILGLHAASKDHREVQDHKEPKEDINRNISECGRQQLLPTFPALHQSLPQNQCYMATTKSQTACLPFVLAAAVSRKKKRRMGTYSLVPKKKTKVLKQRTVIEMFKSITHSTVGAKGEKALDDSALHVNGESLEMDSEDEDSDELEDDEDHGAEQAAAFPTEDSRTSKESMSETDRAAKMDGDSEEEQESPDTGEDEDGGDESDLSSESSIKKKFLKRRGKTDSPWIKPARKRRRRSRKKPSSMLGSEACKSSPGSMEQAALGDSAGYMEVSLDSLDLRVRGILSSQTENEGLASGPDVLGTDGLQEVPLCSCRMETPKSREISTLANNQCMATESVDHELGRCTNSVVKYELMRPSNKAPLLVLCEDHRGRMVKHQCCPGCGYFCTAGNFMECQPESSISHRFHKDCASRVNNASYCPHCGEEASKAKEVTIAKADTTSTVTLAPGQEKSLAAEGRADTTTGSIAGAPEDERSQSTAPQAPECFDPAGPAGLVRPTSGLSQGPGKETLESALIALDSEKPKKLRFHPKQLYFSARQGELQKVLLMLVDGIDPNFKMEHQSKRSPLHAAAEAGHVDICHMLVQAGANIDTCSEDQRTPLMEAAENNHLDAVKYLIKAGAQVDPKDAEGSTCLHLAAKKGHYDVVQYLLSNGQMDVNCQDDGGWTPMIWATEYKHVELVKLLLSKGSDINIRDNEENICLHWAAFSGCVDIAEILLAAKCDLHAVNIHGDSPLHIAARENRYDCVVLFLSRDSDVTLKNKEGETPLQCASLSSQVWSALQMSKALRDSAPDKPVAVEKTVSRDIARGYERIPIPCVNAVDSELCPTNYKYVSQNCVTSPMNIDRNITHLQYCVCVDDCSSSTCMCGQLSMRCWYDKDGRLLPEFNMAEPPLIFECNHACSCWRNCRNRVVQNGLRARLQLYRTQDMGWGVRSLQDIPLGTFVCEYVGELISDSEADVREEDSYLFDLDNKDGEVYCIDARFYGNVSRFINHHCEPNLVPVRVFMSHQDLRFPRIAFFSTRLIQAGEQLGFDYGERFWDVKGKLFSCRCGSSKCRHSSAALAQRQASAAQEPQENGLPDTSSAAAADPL
UniProt Q04207: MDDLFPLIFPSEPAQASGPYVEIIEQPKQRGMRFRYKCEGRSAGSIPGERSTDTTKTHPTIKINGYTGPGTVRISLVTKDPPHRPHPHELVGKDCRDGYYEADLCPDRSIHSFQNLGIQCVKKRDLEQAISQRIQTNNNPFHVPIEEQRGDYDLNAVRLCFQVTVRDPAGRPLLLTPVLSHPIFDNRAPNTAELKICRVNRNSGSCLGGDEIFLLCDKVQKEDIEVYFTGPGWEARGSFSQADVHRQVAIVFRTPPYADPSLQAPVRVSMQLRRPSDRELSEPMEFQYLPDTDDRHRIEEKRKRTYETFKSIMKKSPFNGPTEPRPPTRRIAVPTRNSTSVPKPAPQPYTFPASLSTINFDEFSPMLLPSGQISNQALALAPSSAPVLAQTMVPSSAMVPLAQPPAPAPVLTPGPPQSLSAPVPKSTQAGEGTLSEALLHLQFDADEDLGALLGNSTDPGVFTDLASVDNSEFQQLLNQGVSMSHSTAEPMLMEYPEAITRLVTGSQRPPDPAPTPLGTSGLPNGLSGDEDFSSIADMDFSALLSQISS
UniProt P42230: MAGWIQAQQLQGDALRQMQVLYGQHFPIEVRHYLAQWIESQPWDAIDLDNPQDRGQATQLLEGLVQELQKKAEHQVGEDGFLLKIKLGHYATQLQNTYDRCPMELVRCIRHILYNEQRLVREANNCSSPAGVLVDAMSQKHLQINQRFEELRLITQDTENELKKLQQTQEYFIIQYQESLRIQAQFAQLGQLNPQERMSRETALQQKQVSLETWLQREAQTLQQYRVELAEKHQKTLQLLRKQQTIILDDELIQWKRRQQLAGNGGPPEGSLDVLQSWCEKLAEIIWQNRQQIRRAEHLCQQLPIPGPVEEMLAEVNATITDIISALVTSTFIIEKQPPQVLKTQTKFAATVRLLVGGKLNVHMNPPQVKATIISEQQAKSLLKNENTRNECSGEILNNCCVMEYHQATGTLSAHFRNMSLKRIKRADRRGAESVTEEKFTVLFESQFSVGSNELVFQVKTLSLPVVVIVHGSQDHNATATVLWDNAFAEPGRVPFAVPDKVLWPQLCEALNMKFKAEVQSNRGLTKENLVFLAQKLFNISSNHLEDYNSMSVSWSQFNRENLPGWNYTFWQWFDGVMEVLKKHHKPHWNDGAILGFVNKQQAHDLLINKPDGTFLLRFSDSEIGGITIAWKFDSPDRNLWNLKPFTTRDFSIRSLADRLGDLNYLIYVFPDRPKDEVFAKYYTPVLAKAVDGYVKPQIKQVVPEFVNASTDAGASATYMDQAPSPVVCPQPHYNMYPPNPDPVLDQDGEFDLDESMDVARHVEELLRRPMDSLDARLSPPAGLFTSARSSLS

No constants are given. Whether binding was seen depends on the method and setting. Binding seen in cells or lysates may run through a third protein. Some binding calls cover weakened binding; strength is not graded here.

Experiment [1] concerns the target G9a (euchromatic histone methyltransferase 2; EHMT2) (mouse (endogenous in 3T3-L1)) (UniProt Q9Z148). The experiment can be described thus: co-IP; whole-cell extracts (fresh or after one freeze-thaw cycle) of 3T3-L1 adipocytes treated with vehicle or 0.75 nM TNFα for 30 min; IP with anti-G9a antibody, Protein A beads, immunoblot; endogenous proteins.
The target of experiment [2] is G9a-like protein (GLP; euchromatic histone methyltransferase 1; EHMT1) (mouse (endogenous in 3T3-L1)) (UniProt Q5DW34). The experiment can be described thus: co-IP; nuclear extract (300 μg) of 3T3-L1 adipocytes treated with 0.75 nM TNFα for 30 min; IP with anti-GLP antibody, immunoblot; endogenous proteins.
For experiment [3] the target is unchanged. The experiment can be described thus: co-IP; nuclear extract (300 μg) of 3T3-L1 adipocytes treated with vehicle (0.1% BSA/PBS) for 30 min; IP with anti-GLP antibody, immunoblot; endogenous proteins. (A western blot detects proteins with antibodies after separation by electrophoresis.)
Experiment [4] deals with G9a (euchromatic histone methyltransferase 2; EHMT2) (mouse (endogenous in 3T3-L1)) (UniProt Q9Z148). The experiment can be described thus: co-IP; cytosolic and nuclear extracts (300 μg) of 3T3-L1 adipocytes treated with 0.75 nM TNFα for 30 min; IP with anti-G9a antibody, immunoblot; endogenous proteins.
The target is the same in experiment [5]. The experiment can be described thus: co-IP; cytosolic and nuclear extracts (300 μg) of 3T3-L1 adipocytes treated with vehicle (0.1% BSA/PBS) for 30 min; IP with anti-G9a antibody, immunoblot; endogenous proteins.

As for “G9a-like protein (GLP; euchromatic histone methyltransferase 1; EHMT1) (from UniProt Q5DW34-1 1-1296) (enzyme)”, the binding entry in experiment [1] is reported as “binds”.
Consider “RelA (p65), the major functional subunit of NF-κB (from UniProt Q04207 1-549)”, for which the binding entry is on record as “binds” in experiment [2], “no binding (condition: vehicle-treated cells (no TNFα))” in experiment [3], “binds” in experiment [4] and “no binding (condition: vehicle-treated cells (no TNFα))” in experiment [5].
Consider “signal transducer and activator of transcription 5A (STAT5A) (from UniProt P42230 1-793)”, for which the binding result in experiment [4], in experiment [5] and in experiment [1] was “no binding” in each case.
